Like-named read-outs stand apart in the source and are kept apart here.
Experiments:
[1] = system: NCI-H322M; settings: for Mean Optical Densities / Percent Growth: NCI-H322M
[2] = system: NCI-H322M; experiment: cells; settings: Homo sapiens

## CC(C)c1cnn2c(NCc3ccccc3)cc(N[C@@H](CO)[C@H](O)CO)nc12 [ICEC0318, (3S)-3-(7-(Benzylamino)-3-isopropylpyrazolo[1,5-a]pyrimidin-5-ylamino)butane-1,2,4-triol]
[1]; NCI-H322M (Non-Small Cell Lung Cancer)
  TGI: >1.00E−4
[1]; log10 concentration −4.0
  Mean Optical Densities: 0.893
  Percent Growth: 18%
[1]; log10 concentration −5.0
  Mean Optical Densities: 0.941
  Percent Growth: 22%
[1]; log10 concentration −6.0
  Mean Optical Densities: 0.927
  Percent Growth: 21%
[1]; log10 concentration −7.0
  Mean Optical Densities: 1.663
  Percent Growth: 87%
[1]; log10 concentration −8.0
  Mean Optical Densities: 1.904
  Percent Growth: 109%
[2]
  GI50: 361 nM
[2]; read-out: LC50
  CC50: > 100000 nM

Source: patent US8067424B2, “Selective inhibitors for cyclin-dependent kinases” (Emory University, priority 2007, dated 2011)
